# The list shows a part of the results.
# Test system: PfSIP2 AP2 domain 1 (GST-tagged)
# Test: gcPBM binding intensity (ln(normalized median fluorescence intensity)); higher = stronger DNA binding
# Procedure, shortened: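 An Agilent 4 × 180k array of primer-extended double-stranded 36-bp intergenic genomic probes, with negative controls, was incubated for 1 h with GST-tagged P. falciparum DNA-binding domains expressed in E. coli. Alexa488 anti-GST antibody detected bound protein, scanned at 488 nm. Binding intensity is the highest Masliner-normalised natural-log median intensity across replicate spots of either probe orientation.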
row,Sequence,gcPBM binding intensity (ln)
1,AGGTTAAAAATAAATACACACATTTGATGTCTGTAT [CACACA_site6596],6.73
2,ATATAACATATTAATAATATATTTATAATATGTTTA [GTGCAC_negctrl_site168],6.96
3,TTTTGAGAATATATGGGTACAAATAAATAAAAATAT [XGTACX_site1933],7.26
4,AAATTTAAATAATGTGCGCATCTTAATATATATAAG [GTGCAC_site9890],9.04
5,AAATAATATTGAAAAGTGCATATTTTTGTTGATATA,8.42
6,CATATAAATAGACACACACACACATATAAATAAATA [CACACA_site7156],7.23
7,TAATAAAAAAAGTGCACACACATAATATATATATAT [CACACA_site3340],10.4
8,TATAAATCAATATGTACACACATATACATGTTGAAT [CACACA_site7460],7.01
9,CATATAATATATCAATGTACATATATATTTTATAAA [XGTACX_site5901],6.99
10,TTAGCAACTATTACTACACACATTTTTATATAATTT [CACACA_site1372],7.17
11,ATTGTCAAAACACGCACACACATATACATAATAACA [CACACA_site1742],7.36
12,ATTATATACATATATATTGTATATACTATACATATG [XGTACX_negctrl_site545],6.84
13,ATATATACCTATAACACACACATATTTATATTTATA [CACACA_site7257],7.16
14,TCTTATTTAAAAATAGCACACATTATATATATATAT [CACACA_site8916],9.18
15,ATATATATATAAAGGAGTACATACATTAAAAAAAAA [XGTACX_site1095],8.7
16,AAAAAACATACATACACACACATAAATATATATATT [CACACA_site2699],7.11
17,TCCTTGTTTGGTTTTTTTTTTTCTTCTTTTTTTTTT [CACACA_negctrl_site1355],6.93
18,TATGAAACGATATATGTGCACATGAGGGAATATAGA [GTGCAC_site9611],8.75
19,TTAAATGTTATATATTGTACATATAATATATGTATT [XGTACX_site1492],6.97
20,ATAAAAGATTTATACATACACACATATTATATTCAC [CACACA_site3714],7.12
21,TTTTTTTTTTTTTTTTAACACACATATATATATTTT [CACACA_site8585],7.14
22,ATATATATGTATATAACATGCAACATTTAATAATAA [TGCATGCA_site1018],7.18

row,Sequence,gcPBM binding intensity (ln)
1,ACACATGTATTTGGTGCATGTTGTTAAAAAAATATT [TGCATGCA_site795],10.8
2,TCATAGCTAGGATAACGTACAGAAAAGTGAAAAATT [XGTACX_site3322],7.16
3,TTTTTTTTTTGTTGTTGTACTCTTATATTTTTATAT [XGTACX_site6178],7.14
4,ATTCTAGTAATATATGTATATTTATATATGTATGTG [XGTACX_negctrl_site419],6.89
5,GATCTATTGAGTGATACATGCAGGAAAATTAAAAAC [TGCATGCA_site729],7.34
6,TTTTTTTTTTTATGCTCACACATTAATTTTTATACA [CACACA_site4527],6.95
7,TATGTATGTATGTATGTATGCATGTCTAACACCTAA [TGCATGCA_site360],7.27
8,AAAAAGAAAAAAGAAAGTACAAATATACACATTTTT [XGTACX_site3343],6.65
9,TTTTTATTATAAGGTCGTACAATTGTAATTATTGTA [XGTACX_site1413],7.1
10,AAAAAACACGGACACACACACATATACATACATACA [CACACA_site5470],7.75
11,AATATAAATAATGTTAAACACACATACCGATATATA [CACACA_site8869],6.95
12,ATTTATAGAGCTATATGTACATATATATATATTATT [XGTACX_site3704],7.28
13,AAAAGGTGGAAAAATGCATGCAGGCTATTCTATATA [TGCATGCA_site1034],6.7
14,AATTACATATAATACTGTACGCTAATAAGAAAAAAA [XGTACX_site7413],7.1
15,TTCCACCAATATATATGTACTTATAATATATATATA [XGTACX_site8700],8.56
16,ATATAAATAAAGAAATATATATATATATATATATAT [GTGCAC_negctrl_site668],9.28
17,AACGCTTATTAGTTGTTGTATATGTGTTCACATATT [CACACA_negctrl_site379],6.79
18,ACAATATAGATTAAAAGTACAAATAGTAAATTATAT [XGTACX_site3165],7.08
19,AAAACAATATACTGTAGTACTGATGATATATATATA [XGTACX_site7798],8.93
20,TCTTAAATATATAAATTGAAAAATATAAAAGTAATA [CACACA_negctrl_site1558],7.01
21,ATAAAAAAAAATAGCACACATAAATATATTATATAT [CACACA_site767],6.97
22,AATCATCTCATAAAAATTAATTAGTGTATGTCTTTT [TGCATGCA_negctrl_site416],6.81

row,Sequence,gcPBM binding intensity (ln)
1,CTACTTATAAATAGAACACACATAAGTGTATTTGTA [CACACA_site3759],6.87
2,TAATTATGTATGAACTGTACAGGTTATTTTATTTTA [XGTACX_site5204],6.89
3,TAAAATTTAAATTATACACACTTAAGTAACATCATC [CACACA_site4450],7.12
4,AAAAAATACCTCTATAGTACATATATATAATATTTA [XGTACX_site7222],6.9
5,AAAAAAAATTTATTTGCATGCAAAAAAAAAAAAAAA [TGCATGCA_site67],6.94
6,AAGCCCATTATTAAATGTACAAAATTTTATAAACTA [XGTACX_site7800],6.87
7,TAAAACATATATACAAGTACACAAAGGATATATATA [XGTACX_site3710],7.27
8,GTATATATGTATATATGTACATATATATAATATATT [XGTACX_site56],7.3
9,CAGTGCCAAATTAGCACACACATATATACATGAATT [CACACA_site2814],7.37
10,TATAGGTATTTATATACACACATATTCTTTTTACAC [CACACA_site6686],7.13
11,TTTTGTTATGGTTTGATGCACTTATATATAAATATT [GTGCAC_site9705],8.14
12,ATGTAGATAAAACGTGTGCACATGTTTTTTGTTATT,8.7
13,CACAGTGATATAAAAACACACATGAATTATAATTTC [CACACA_site1667],6.88
14,ATATATATATATATATGTACTTATTACCAATGTTAG [XGTACX_site1896],9.6
15,ATTTAAATACAAAATTGTACTTTTCTATATTTAACA [XGTACX_site6146],7.22
16,ACCCATTTAACAAAATGTACATTATTATAATTACTT [XGTACX_site7105],7.2
17,AAATTTTAAATAGTATGTACGTATGAAATATATATG [XGTACX_site7511],7.58
18,TTTGGAAAAAAATTATTTAAACGATATGAATTGATG [XGTACX_negctrl_site506],7.09
19,AAAATTTTACAGAAGGTGCGTATATTTTCCTGCTTA [GTGCAC_site9643],9.88
20,CTTACCAAAAGACACACACACACAAGATATATAAAT [CACACA_site6964],7.08
21,AAATTAAAATAAAAATGTACATATAAAGACACAACT [XGTACX_site3132],7.19
22,TACAATATTTTGAGACGTACATATATACATTTACAT [XGTACX_site5880],6.99

row,Sequence,gcPBM binding intensity (ln)
1,TGAACTTACTTGGACATACACACATATATATATATA [CACACA_site2977],9.74
2,TATATATATATACCAACACACATACAGATATATATA [CACACA_site5060],9.36
3,TTTATATACAAAAATGCACACGAAAAGTAATATATA [CACACA_site9387],7.77
4,TGTAAGTCGTTATAAGCACACACATAAATAAAAATA [CACACA_site8448],7.16
5,CATTTAGTTCATACTATGCACACTACGTATATTTTT [CACACA_site2694],7.23
6,AATGCACAGCTCTTAGGCAAAAGTGGGTATTTACAC [GTGCAC_negctrl_site579],7.51
7,TGTATAAAAAACTAATGTACAAATGACAAGATATCT [XGTACX_site4600],6.9
8,ACAATTCATTAGAATTGTACAAAAGGATGAAGCGAA [XGTACX_site5242],7.3
9,ATTTAATACAAATACACACACAAATATGTACCTATA [CACACA_site7718],7.16
10,ATTTTTTTTTTTTAATTTGATATTTGCGTTTATATA [CACACA_negctrl_site1305],6.81
11,AATATATGATAATTTTTTTTTTTTTTTTTTAAATAT [CACACA_negctrl_site452],6.79
12,AAAAAATGTTAAAAAAGTACTTTCTTTATTTAATAA [XGTACX_site2908],6.8
13,AACAATTGTTAAAGGTGTACCATATGTATATAAGAA [XGTACX_site5723],7.38
14,AGACGTAATAATTGTTGTACATAAAAAAATAAGAAA [XGTACX_site7594],7.35
15,TGTGTTAGCAAAAAAGTGCACAGGGAAAAAAAAATA [GTGCAC_site9397],10.2
16,ATGATATTATAAAAAAGTACATATGTATATAATTAT [XGTACX_site7652],7.33
17,AAAAGCTTAAAAAATTGTACATAAATGAATAAATAT [XGTACX_site5201],6.79
18,AAAAATAAAACAATTACACACATAACTTTATTTTTA [CACACA_site6563],7.08
19,ACAAATGGAACTCCTACAAAAAATTTCCATAATATT [XGTACX_negctrl_site132],6.76
20,TAAACCTATTATACGGGTACTTATTTGATTCTTATA [XGTACX_site5292],6.72
21,ACCACCATATAACATACATGCATCTTTTTTCCCTTC [TGCATGCA_site583],7.75
22,GAACTCATTTAATATTGTACATTCTGATATTTTTTA [XGTACX_site5995],7.08
